Source: PubChem BioAssay AID1030 (National Center for Advancing Translational Sciences (NCATS), 2008)
The whole screen tested about 220,000 compounds, of which about 16,000 (7.3%) were called active. This list was built around the results that the source calls inconclusive (neither active nor inactive); the mix of calls is not that of the screen. Calls follow the shape of the dose curve; as a rule, active = well fitted inhibition curve with a large enough effect (not every such curve was filed as active); inconclusive = small, poorly fitted or top-dose-only effect, or another doubt; inactive = no such curve, though single readings can be large or run the other way. Potencies of inconclusive entries are left out as doubtful fits.

Biological target: Aldehyde dehydrogenase 1A1 (Homo sapiens) (UniProt P00352)
Chain of UniProt P00352 (P00352 whole entry, looked up): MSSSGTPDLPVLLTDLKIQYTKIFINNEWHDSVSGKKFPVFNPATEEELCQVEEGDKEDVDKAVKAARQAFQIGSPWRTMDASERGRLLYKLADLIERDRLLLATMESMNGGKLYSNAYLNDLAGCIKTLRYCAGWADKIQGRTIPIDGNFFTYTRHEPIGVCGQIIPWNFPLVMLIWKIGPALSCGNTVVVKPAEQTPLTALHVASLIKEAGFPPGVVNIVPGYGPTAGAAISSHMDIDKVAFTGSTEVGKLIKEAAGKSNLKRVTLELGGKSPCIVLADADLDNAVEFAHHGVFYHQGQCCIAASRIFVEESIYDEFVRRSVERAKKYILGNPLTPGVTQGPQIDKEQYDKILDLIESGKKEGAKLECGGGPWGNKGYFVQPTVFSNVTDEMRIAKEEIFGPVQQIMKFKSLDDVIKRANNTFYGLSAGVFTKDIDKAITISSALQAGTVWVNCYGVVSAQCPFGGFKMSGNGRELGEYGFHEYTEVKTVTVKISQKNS
Assay: qHTS Assay for Inhibitors of Aldehyde Dehydrogenase 1 (ALDH1A1);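 as to activity, negative = inhibition: plate controls were no enzyme wells and a reference inhibitor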
Settings: Purified ALDH1A1, NADH fluorescence, propionaldehyde substrate; series mostly up to 75.3 µM; activity, negative = inhibition: at the top concentration
Potency is read from the fitted curve at half-maximal effect; tags tell the direction and shape of the fitted curve.

SMILES	Potency	activity, negative = inhibition
Cc1ccn2c(c1)nc(=S)n2C(=O)c1ccco1	inconclusive [inhibitor, single point]	–
CCOC(=O)c1c(N)n(CCOC(=O)c2cccs2)c2nc3ccccc3nc12	inconclusive [inhibitor, partial curve]	–
CC(C)(C)OC(=O)C(Cl)(C(=O)OC(C)(C)C)c1ccc2nnnn2n1	–	inactive: -11.5%
Cc1ccc(-c2noc(CN3CCC(C(N)=O)CC3)n2)cc1	inconclusive [inhibitor, single point]	–
Cn1c(SCc2nc3ccccc3c(=O)[nH]2)nnc1-c1ccco1	inconclusive [inhibitor, single point]	–
O=C(CN1CC(c2ccccc2)CC1=O)OCc1ccccc1F (configuration not stated)	active: 8.91 µM	–
CC(C)(CSc1ccccn1)NS(=O)(=O)c1ccc(Cl)cc1	active: 10 µM	–
CCOC(=O)c1cccc(NC(=O)C(NS(=O)(=O)c2ccc3c(c2)CCN3C(C)=O)C(C)C)c1 (configuration not stated)	–	inactive: 2.12%
Cc1ccc(NC(=O)CN(C)C(=S)NC2CC2)cc1	–	inactive: 5.3%
O=C1N=C(c2ccccc2)C(c2ccccc2)N1 (configuration not stated)	inconclusive [inhibitor, partial curve]	–
COc1ccc(-c2cc(C(=O)N/N=C/c3ccc(OC)c(OC)c3)[nH]n2)cc1	inconclusive [inhibitor, single point]	–
COc1cc(C(=O)NC(=S)N2CCCCCC2)cc(OC)c1OC	–	inactive: -2.85%
Cc1nnc(SCC(=O)Nc2nccs2)[nH]c1=O	–	inactive: -8.65%
Cc1ccc(-n2nc3ccc(N)cc3n2)cc1	inconclusive [inhibitor, partial curve]	–
N#C/C(C(=O)Oc1ccccc1)=C1\C=Cc2ccccc2N1	inconclusive [inhibitor, partial curve]	–
N#Cc1ccccc1CN1C(=O)S/C(=C/c2cccn2-c2ccc(C(=O)O)cc2)C1=O	active: 0.501 µM	–
Cc1onc(-c2ccccc2Cl)c1C(=O)Nc1c(C)n(C)n(-c2ccccc2)c1=O	inconclusive [inhibitor, single point]	–
O=C1CN(CC(=O)N2CCOCC2)c2ccccc2O1	active: 9.46 µM	–
CCN1CCc2c(sc(NC(=O)CN3C(=O)c4ccccc4C3=O)c2C(N)=O)C1	–	inactive: 9.44%
CN(C(=O)/C=C/c1ccc2c(c1)OCO2)c1ccccc1	–	inactive: -8.9%
Cc1cc(=O)[nH]c2cc(O)ccc12	inconclusive [inhibitor, partial curve]	–
COc1ccc(CC/C(C)=N\NC(N)=O)cc1	–	inactive: 0.0986%
O=C(/C=C/c1ccco1)Nc1cccc(NC(=O)/C=C/c2ccco2)n1	–	inactive: -5.97%
O=C(CSc1nnc2c(n1)[nH]c1ccc(S(=O)(=O)N3CCOCC3)cc12)Nc1ccccc1Cl	inconclusive [inhibitor, single point]	–
CCc1nc2ccc(C(=O)Nc3ccc4c(c3)OCO4)cc2nc1CC	inconclusive [inhibitor, single point]	–
Cc1cccc2cc(CN(Cc3ccco3)C(=O)c3ccncc3)c(=O)[nH]c12	inconclusive [inhibitor, single point]	–

SMILES	Potency	activity, negative = inhibition
O=C(Nc1nccs1)c1csc2c1CCCC2	inconclusive [inhibitor, single point]	–
CCOC(=O)C1=C(c2ccccc2)N=c2s/c(=C\c3ccc(O)cc3)c(=O)n2C1c1cccs1 (configuration not stated)	–	inactive: -3.73%
CC(C)C[C@H](NC(=O)c1nc[nH]c1C(=O)NCc1ccccc1)C(=O)OCc1ccccc1	–	inactive: -6.19%
CCOC(=O)c1ccc(NC(=O)c2cccc(S(=O)(=O)N3CCOCC3)c2)cc1	inconclusive [inhibitor, partial curve]	–
Cc1cccc(NC(=O)CN2C(=O)N/C(=C/c3ccc(C)o3)C2=O)c1	active: 10 µM	–
Nc1cccc2c1C(=O)N(C(=O)c1cccc(S(=O)(=O)N3CCCC3)c1)C2=O	inconclusive [inhibitor, partial curve]	–
CC1=C(C(=O)Nc2ccccc2)C(c2ccc(C)cc2)N=C(Nc2nc3ccccc3o2)N1 (configuration not stated)	inconclusive [inhibitor, partial curve]	–
Cc1ccc(NC(=O)C(C)OC(=O)c2ccc(NS(=O)(=O)c3ccc(F)c(F)c3)cc2)cc1 (configuration not stated)	–	inactive: 6.33%
O=C(CSCc1ccc(Br)cc1)Nc1ccc(S(=O)(=O)N2CCCCCC2)cc1	inconclusive [inhibitor, partial curve]	–
Cn1cc(CNCc2ccc(-n3cccn3)cc2)c(-c2ccccc2F)n1	–	inactive: 12.8%
CCCCCCCC/C=C\CCCCCCCCOC[C@H](COP(=O)([O-])OCC[N+](C)(C)C)OC(C)=O	inactive	–
O=C(Nc1ncn[nH]1)c1cccc(S(=O)(=O)N2CCOCC2)c1	inconclusive [inhibitor, single point]	–
Cc1ccc(CN(Cc2cc3cc4c(cc3[nH]c2=O)OCCO4)Cc2nnnn2Cc2ccco2)cc1	inconclusive [inhibitor, partial curve]	–
CCCCOCCOCCOCCCC	–	inactive: 7.24%
Cc1ccc(OCC(=O)NCc2ccco2)cc1C	inconclusive [inhibitor, single point]	–
CCOc1ccc(C(=O)NCC(=O)N2CCC(C)CC2)cc1OCC	–	inactive: 8.46%
Cc1ccc2[nH]c(=O)c(CN3CCCCC3)c(-c3ccccc3)c2c1	inconclusive [inhibitor, single point]	–
COCCOC(=O)c1ccccc1C(=O)OCCOC	–	inactive: -59%
COC(=O)c1ccc2c(c1)SC1=C(CCCC1=O)N2	–	inactive: 3.78%
CCC(=O)N/N=C/c1ccc(OS(=O)(=O)c2ccccc2)cc1	inconclusive [inhibitor, single point]	–
Cc1cccc(N2CN=C3SCC(=O)N3C2)c1	–	inactive: -2.04%
CN(C)/C=N/S(=O)(=O)c1ccc(Cl)c(Cl)c1	–	inactive: 8.27%
N#CC1=C(N)SC(N)=C(C#N)C1c1c(Cl)cccc1Cl	active: 22.4 µM	–
Cc1ccc2[nH]c(=O)c(CNS(=O)(=O)c3ccccc3)c(-c3ccccc3)c2c1	inconclusive [inhibitor, single point]	–
CCN1C(=O)c2ccccc2S(=O)c2ccc(C(=O)NC3CC3)cc21 (configuration not stated)	–	inactive: -1.83%
Cc1ccc(S(=O)(=O)Nc2ccc(Cl)cc2)cc1NC(=O)c1cc2c(s1)CCCC2	–	inactive: -6.88%

SMILES	Potency	activity, negative = inhibition
CCOc1cc(/C=C2\SC(=S)N(Nc3ccccc3)C2=O)ccc1O	active: 11.2 µM	–
COc1cc(/C=N/NC(=O)COc2ccc(Cl)cc2)ccc1OS(=O)(=O)c1ccc(C)cc1	inconclusive [inhibitor, full curve]	–
CCC1=C2CC[C@H]3C(=O)N(c4ccccc4)C(=O)[C@H]3[C@H]2[C@@]2(C)C(=NCc3ccccc3)OC(=O)N2C1=O	inconclusive [inhibitor, single point]	–
CCOC(=O)N1CCN(C(=O)c2ccc3c(=O)n(-c4ccc(OC)cc4OC)c(=S)[nH]c3c2)CC1	–	inactive: -7.88%
CCn1c(-c2ccc(N)cc2)nc2ccccc21	inconclusive [inhibitor, partial curve]	–
O=C(CSc1ccc(-c2ccco2)nn1)NCc1ccccc1Cl	inconclusive [inhibitor, single point]	–
O=c1c(CCc2ccccc2)nc2cnc(N3CCNCC3)nc2n1Cc1cccs1	inconclusive [inhibitor, single point]	–
COc1cccc(NC(=O)CN(c2cccc(F)c2)S(C)(=O)=O)c1	–	inactive: 14.1%
IC(I)I	active: 12.6 µM	–
COc1ccc(-c2nc(CS(=O)CC(=O)NCc3cccnc3)c(C)o2)cc1 (configuration not stated)	inconclusive [inhibitor, single point]	–
O=C(NCC1CCCO1)c1ccc(NC(=O)C2CC=CCC2C(=O)O)cc1 (configuration not stated)	inconclusive [inhibitor, single point]	–
CCc1c(C)[nH]n(-c2nc(-c3ccccc3)cs2)c1=O	inconclusive [inhibitor, single point]	–
CCC(=O)NC(=S)Nc1ccc(NC(=O)COc2ccccc2)cc1	active: 25.1 µM	–
CC1(C)CC(=O)C=C(Nc2cc(-c3ccccc3)[nH]n2)C1	active: 4.47 µM	–
COc1ccccc1C1(O)CCN(CC(=O)Nc2nc(-c3ccccc3)cs2)CC1	–	inactive: 6.68%
Cc1cc(NC(=O)Cn2cc([N+](=O)[O-])cn2)no1	–	inactive: -8.67%
CCOC(=O)C1(CCCc2ccccc2)CCN(C(=O)c2ocnc2C)CC1	active: 0.891 µM	–
CC(C)(CO)NC(=O)Nc1ccc(Cl)c(Cl)c1	–	inactive: 2.13%
CCC/C=C(\CCC)C(NS(=O)(=O)c1ccc(C(F)(F)F)cc1)c1ccc(-c2ccccc2)cc1 (configuration not stated)	active: 22.4 µM	–
Cc1cc(C)c(NC(=O)C2CC(=O)N(c3ccc4c(c3)OCCO4)C2)c(C)c1 (configuration not stated)	inconclusive [inhibitor, partial curve]	–
COc1cc(/C=N/Nc2nncn2/N=C/c2ccc(O)c(OC)c2)ccc1O	inconclusive [inhibitor, single point]	–
O=C(NNC(=O)c1cccc(O)c1)Nc1ccc([N+](=O)[O-])cc1	inconclusive [inhibitor, single point]	–
Cc1ccc2nc(N3CCN(S(=O)(=O)c4ccc(C)c(Cl)c4)CC3)c(C#N)cc2c1	inconclusive [inhibitor, single point]	–
Nn1c(SCC(=O)N2CCc3ccccc3C2)nnc1-c1cccs1	inconclusive [inhibitor, single point]	–
CS(=O)(=O)N1CCN(c2ccccc2NC(=O)c2cccs2)CC1	active: 10 µM	–
